In PubChem BioAssay AID1963576 (National Center for Advancing Translational Sciences (NCATS), 2024):
In all, about 46,000 compounds went through this assay and about 60 (0.1%) were called active. Not shown: some 3% with an inconclusive outcome. Calls follow the shape of the dose curve; as a rule, active = well fitted inhibition curve with a large enough effect; inconclusive = small, poorly fitted or top-dose-only effect; inactive = no such curve, though single readings can be large or run the other way. The list shows a part of the results.

Assay: Primary qHTS assay for Inhibitors of ovarian cancer metastasis using an organotypic tumor microenvironment (TME) model. Also: nearly all actives have a fitted effect of over 65% in size.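 As to activity change, negative = inhibition: plate controls were DMSO wells for no effect and tomatine positive control wells for full effect.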
Details: SKOV3ip1-GFP adhesion/invasion on 3D omental model, fluorescence; series mostly up to 45.8 µM; activity change, negative = inhibition: at the top concentration
Outline: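 Adhesion/invasion was scored as fixed GFP-labeled SKOV3ip1 cell counts (488/509 nm), normalized to DMSO and tomatine controls. Cancer cells in serum-free medium, with four compound doses (0.36-46 umol/L), sat 2 hr at RT then 16 hr at 37 C on a 48 hr fibroblast/mesothelial/ECM culture.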

Activity change, negative = inhibition, inactive:
CS(=O)(=O)CC[C@@H](C(=O)NCCc1ccccc1)N1Cc2ccccc2C1=O -7.69%
Cc1cc(C)c2c(=O)cc(C(=O)Nc3sc4c(c3C(=O)NCc3ccco3)CCCC4)oc2c1 -22.6%
Cc1cccc(OCC(=O)N2CCC(c3nc4ccccc4o3)CC2)c1C -6.17%
CC1CCN(S(=O)(=O)c2cc(C(=O)N3CCN(c4cccc(Cl)c4)CC3)n(C)c2)CC1 -6.13%
CCOC(=O)c1c(NC(=O)c2cc(-c3cccc(Cl)c3)on2)sc(C(C)=O)c1C -2.9%
O=C(C1COc2ccccc2O1)N(Cc1cccnc1)c1nc2c(F)cccc2s1 (configuration not stated) 3.1%
Cc1ccc(Nc2c3c(nc4nncn24)CCC3)c(C)c1 31%
Cc1ccc(NC(=O)CN2C(=O)c3cccnc3Sc3ccccc32)c(Br)c1 -6.78%
CCOc1ccc(S(=O)(=O)c2cn(CC)c3ccc(F)cc3c2=O)cc1 1.79%
CCOC(=O)c1nnn(C(CC)C(=O)Nc2ccc(F)cc2)c1C(=O)OCC (configuration not stated) 0.735%
COc1ccc(N(CC(=O)N2CCc3ccccc3C2)S(=O)(=O)c2ccccc2)cc1 -0.819%
O=c1n(Cc2ccc(F)cc2)c2ccccc2c2nc(-c3ccccc3)nn12 6.73%
Cc1ccc(CNC(=O)c2ccc(Cn3c(SCc4ccc(F)cc4)nc4cccnc43)cc2)o1 -7.06%
CCc1cccc(NC(=O)CSc2nnc(-c3cc4occc4n3C)n2-c2ccccc2C)c1 -8.44%
COc1cccc(/C=C/c2nc(C#N)c(NC3CCCCC3)o2)c1 -10.7%
CCOC(=O)c1c(C)oc2nc(C)nc(NCC3CCN(Cc4cc(C)ccc4C)CC3)c12 1.59%
CNC(=O)c1ccc2cc(C3(O)CCn4cncc43)ccc2c1 (configuration not stated) 6.12%
CCc1cnc2c(c1SCC(=O)NCc1ccc(C)cc1)c(=O)n(C)c(=O)n2C 12.7%
Cc1ccc(CNC(=O)C2CCN(S(=O)(=O)c3ccc4nc5c(c(C(=O)O)c4c3)CC(C)CC5)CC2)cc1 (configuration not stated) 15.4%
COc1cccc(NC(=O)N(CCC(C)C)C2CCN(C(C)C)CC2)c1 -1.11%
Cc1ccccc1OCC(=O)Nc1ccc(-c2nc3cc(Cl)cc(Cl)c3o2)cc1 9.05%

outcome, inactive:
Cc1ccc(NC(=O)Cn2nnc(-c3ccccc3)n2)c(C)c1
COc1ccccc1C1C(C(=O)N2CCCCC2)=C(C)Nc2nc3ccccc3n21 (configuration not stated)
Cc1ccc(-n2nc(CO)c(C(=O)NCCC(C)C)n2)cc1C
COc1cccc(-n2c(=O)c3sc4ccccc4c3n(Cc3c(F)cccc3Cl)c2=O)c1
CSc1ccc(CCNC(=O)Cn2c(C)c3cnn(-c4ccccc4)c(=O)c3c2C)cc1
Cc1ccc(N2C(=O)C(CC(=O)Nc3cccc(F)c3)N(CCc3ccccc3F)C2=O)cc1 (configuration not stated)
